# PubChem BioAssay (NCATS)
# This list was built around the results that the source calls inconclusive (neither active nor inactive); the mix of calls is not that of the screen. Entries that show only a call come without a potency. For some of these results: Potencies of inconclusive entries are doubtful fits and often do not repeat. Active and inactive are the calls of the source. Unless noted, calls come from the whole dose curve; as a rule, active = well fitted curve in the direction sought with a large enough effect; inconclusive = small, poorly fitted or top-dose-only effect, or another doubt; inactive = no such curve, though single readings can be large; an effect the other way counts as inactive or inconclusive.
# Tests used:
# [1] = Primary qHTS for inhibitors of nuclear receptor binding SET domain protein 2 (NSD2) in an isogenic RCH-ACV NSD2 p.E1099K mutant (9B) (AID 1645876); details: activity change, negative = viability loss: at 44.9 µM (top of the series) unless noted; note: potency is the fitted concentration of half-maximal effect; nearly all actives have a fitted effect of over 70% in size
# [2] = Primary qHTS for inhibitors of nuclear receptor binding SET domain protein 2 (NSD2) in an RCH-ACV wild type WT cells (2C) (AID 1645877); details: activity change, negative = cell killing: at 44.9 µM (top of the series) unless noted; note: nearly all actives have a fitted effect of over 70% in size; note: potency is the fitted concentration of half-maximal effect
# [3] = Primary redox qHTS assay for identification of artifact compounds. (AID 1845223); note: potency is the fitted concentration of half-maximal effect
# Procedure, shortened: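 Amplex Red (25 uM) and HRP (250 mU/mL) in HBSS, with compounds for 15 min, then 250 uM DTT for 30 min, room temperature, dark. Fluorescence 525/598 nm read; normalized to DMSO and 10 uM DA3003; Hill fit.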
# Es-2 = assay: Primary qHTS to identify gynecologic anti-cancer compounds using libraries of approved drugs and bioactive compounds (AID 1345084); details: Gynecologic cancer cell panel viability, ATPlite luminescence, 48 h; series mostly up to 57.5 µM; note: nearly all actives have a fitted effect of over 55% in size; note: potency is the fitted concentration of half-maximal effect
# Procedure, shortened: (§1)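 Luminescence from the ATPlite ATP-monitoring reagent indicates viable cell number; lower signal means cytotoxicity. Cells received compound 16 h after seeding and were exposed for 48 h across five concentrations.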
# [4] = qHTS of pediatric cancer cell lines to identify multiple opportunities for drug repurposing: Primary screen for SJ-GBM2 cells (AID 1347091)
# Procedure, shortened: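 Cell viability, CellTiter-Glo luminescence; 500-1,000 cells/well, 8- or 11-point titration, 48 h compound exposure at 37 degrees C, 5% CO2. Controls: DMSO neutral, bortezomib 2.3 µM final as positive.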
# [5] = qHTS of pediatric cancer cell lines to identify multiple opportunities for drug repurposing: Primary screen for Rh18 cells (AID 1347102); note: nearly all actives have a fitted effect of over 65% in size
# Procedure, shortened: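 Cells (500-1,000/well) rested 5 h, then received compounds for 48 h; metabolically active cells were measured by CellTiter-Glo luminescence. Final concentrations spanned up to 46 µM (MIPE, 11-point) or 0.59 nM-46 µM (NPC, 8-point) in primary screens, 11-point in follow-ups.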
# [6] = qHTS of pediatric cancer cell lines to identify multiple opportunities for drug repurposing: Primary screen for MG 63 (6-TG R) cells (AID 1347105); details: MG 63 (6-TG R) viability, CellTiter-Glo, 48 h; activity change, negative = cytotoxic: at 46 µM (top of the series); note: nearly all actives have a fitted effect of over 50% in size
# Procedure, shortened: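 Following a 5-hour attachment period, cells at 500-1,000/well received compounds and were cultured for 48 hours. CellTiter-Glo was added and luminescence read to estimate viable, metabolically active cells.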
# [7] = molecular target: Phospholipid hydroperoxide glutathione peroxidase GPX4 (Homo sapiens) (UniProt P36969); assay: Primary qHTS Assay for Inhibitors of Recombinant Selenoprotein Glutathione Peroxidase 4 (GPX4) (AID 1845192); details: activity change, negative = inhibition: at 50 µM (top of the series) unless noted; note: nearly all actives have a fitted effect of over 65% in size
# Sequence of UniProt P36969 (P36969 whole entry, looked up): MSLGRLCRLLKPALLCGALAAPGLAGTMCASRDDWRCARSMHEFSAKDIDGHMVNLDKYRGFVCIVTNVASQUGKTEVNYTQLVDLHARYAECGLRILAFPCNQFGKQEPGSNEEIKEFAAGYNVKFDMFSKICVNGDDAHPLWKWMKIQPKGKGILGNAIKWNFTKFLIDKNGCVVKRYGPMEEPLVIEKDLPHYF
# Procedure, shortened: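 NADPH consumption, followed by fluorescence at 340/450 nm between 0 and 15 min, reports GPX4 activity via coupled glutathione reductase (100 nM). Enzyme 200 nM was pre-exposed to compound 30 min; 0.5 mM cumene hydroperoxide and 1 mM GSH served as substrates.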
# HeLa = assay: Primary qHTS to identify gynecologic anti-cancer compounds using libraries of approved drugs and bioactive compounds (AID 1345084); details: Gynecologic cancer cell panel viability, ATPlite luminescence, 48 h; series mostly up to 57.5 µM; note: nearly all actives have a fitted effect of over 55% in size; note: potency is the fitted concentration of half-maximal effect
# Procedure, shortened: as §1
# SKOV3 = assay: as above; details: Gynecologic cancer cell panel viability, ATPlite luminescence, 48 h; series mostly up to 57.5 µM
# Procedure, shortened: as §1
# [8] = Drug repurposing screens with cells derived from glioblastoma tumor samples (AID 1345199); details: GBM patient neurospheres viability, ATP luminescence, 48 h; Potency: tumour line A unless noted; activity, negative = cell killing: at 46 µM (top of the series), tumour line A unless noted; note: potency is the fitted concentration of half-maximal effect; nearly all actives have a fitted effect of over 40% in size
# Procedure, shortened: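 Four patient lines of CD133+ GBM neurospheres were screened at several concentrations; hits were retested in those lines plus three slower-growing GBM lines, using 48-hour treatment and ATP-based viability.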
# [9] = system: Zika virus NS2B-NS3 protease (linked construct); assay: Primary screen NINDS Rhodamine qHTS for Zika virus inhibitors (AID 1347160); note: nearly all actives have a fitted effect of over 55% in size
# Procedure, shortened: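 Kinetic fluorescence (Ex 480 nm, Em 540 nm) over 15 min with 1.5 microM Rhodamine110 peptide and 25 nM linked protease.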
# [10] = molecular target: Cytochrome P450 2D6 (Homo sapiens) (UniProt P10635); assay: Cytochrome P450 family 2 subfamily D member 6 (CYP2D6) small molecule antagonists: luciferase biochemical (cell-free) qHTS assay (AID 1645840; active = well fitted curve in the direction sought with a large enough effect in the repeat runs; inconclusive = weak or mixed curves; inactive = no such curve, though single readings can be large; an effect the other way counts as inactive or inconclusive; note: nearly all actives have a fitted effect of over 55% in size)
# Sequence of UniProt P10635 (P10635 whole entry, looked up): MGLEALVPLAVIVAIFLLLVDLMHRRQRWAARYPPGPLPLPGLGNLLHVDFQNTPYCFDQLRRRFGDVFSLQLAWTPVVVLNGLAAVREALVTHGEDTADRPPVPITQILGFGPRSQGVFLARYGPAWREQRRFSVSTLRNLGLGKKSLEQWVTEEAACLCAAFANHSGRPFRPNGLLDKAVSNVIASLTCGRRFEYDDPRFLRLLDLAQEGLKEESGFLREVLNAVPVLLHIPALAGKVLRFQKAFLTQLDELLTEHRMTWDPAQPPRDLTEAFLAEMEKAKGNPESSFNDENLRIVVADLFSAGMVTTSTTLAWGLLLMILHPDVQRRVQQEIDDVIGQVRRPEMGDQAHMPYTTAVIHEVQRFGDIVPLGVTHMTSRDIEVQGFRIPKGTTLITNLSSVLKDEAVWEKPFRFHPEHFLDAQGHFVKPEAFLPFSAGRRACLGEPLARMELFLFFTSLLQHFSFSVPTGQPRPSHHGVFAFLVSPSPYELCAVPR
# Procedure, shortened: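 P450-Glo luminescent screen: recombinant CYP2D6 enzyme–proluciferin substrate mix preincubated with compound 10 min at room temperature, then NADPH regeneration added for 1 h at room temperature. Detection reagent added for 20 min; luciferin light read as relative luminescence units.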
# OV90 = assay: Primary qHTS to identify gynecologic anti-cancer compounds using libraries of approved drugs and bioactive compounds (AID 1345084); details: Gynecologic cancer cell panel viability, ATPlite luminescence, 48 h; series mostly up to 57.5 µM; note: nearly all actives have a fitted effect of over 55% in size; note: potency is the fitted concentration of half-maximal effect
# Procedure, shortened: as §1
# Tov-21-G = assay: as above; details: Gynecologic cancer cell panel viability, ATPlite luminescence, 48 h; series mostly up to 57.5 µM
# Procedure, shortened: as §1
# Tov112D = assay: as above; details: Gynecologic cancer cell panel viability, ATPlite luminescence, 48 h; series mostly up to 57.5 µM
# Procedure, shortened: as §1
# Tags give direction and shape of the fitted curve.
smiles,measurement,setting,value
CCCn1cnc2c(NCc3ccccc3)nc(N[C@H](CC)CO)nc21,Potency,[1],"inconclusive: 14.5 µM [inhibitor, single point]"
same,Potency,[2],"inconclusive: 18.3 µM [inhibitor, single point]"
same,Potency,[3],"inconclusive: 29.9 µM [activator, partial curve]"
same,Potency,Es-2,inactive
C[C@H]1O[C@H](O[C@H]2[C@H](O)[C@@H](O)[C@@H](O[C@H]3[C@H](O)[C@@H](O)[C@H](O)O[C@@H]3CO)O[C@@H]2CO)[C@H](O)[C@@H](O)[C@@H]1N[C@H]1C=C(CO)[C@@H](O)[C@H](O)[C@H]1O,Potency,[4],inactive
same,Potency,[5],inactive
same,"activity change, negative = cytotoxic",[6],inconclusive: -30.7% [cytotoxic]
same,Potency,[7],inactive
same,Potency,HeLa,inactive
same,Potency,SKOV3,"inconclusive: 31.6 µM [rising, partial curve, poor fit]"
same,Potency,[8],"inconclusive: 0.1 µM [inhibitor, full curve, poor fit]"
C[C@@H]1O[C@@H](OC[C@H]2O[C@@H](Oc3cc(O)cc4c3C(=O)C(O)(Cc3ccc(O)cc3)O4)[C@H](O)[C@@H](O)[C@@H]2O)[C@H](O)[C@H](O)[C@H]1O (some centres not stated),Potency,[9],inactive
same,Potency,[2],inactive
same,Potency,Es-2,inactive
COc1ncc2cc(C(=O)Nc3cc(C(=O)NCc4cccc(Cl)c4)ccc3Cl)c(=O)[nH]c2n1,Potency,[10],inactive
same,Potency,[3],inactive
same,Potency,HeLa,"inconclusive: 2.82 µM [cytotoxic, partial curve]"
same,Potency,OV90,inactive
same,Potency,SKOV3,inactive
same,Potency,Tov-21-G,"inconclusive: 39.8 µM [cytotoxic, partial curve, poor fit]"
same,Potency,Tov112D,"inconclusive: 15.8 µM [cytotoxic, partial curve]"
O=C1Nc2ccccc2C(O)(c2ccccc2)C1O (configuration not stated),Potency,HeLa,inactive
